Source: PubChem BioAssay AID624202 (National Center for Advancing Translational Sciences (NCATS), 2012)
Screen size: about 380,000 compounds; about 4,000 (1.1%) were called active. Inconclusive results, whose numbers are uncertain, are shown with a selection of clear calls. Calls come from the whole dose curve; as a rule, active = well fitted activation curve with a large enough effect; inconclusive = small, poorly fitted or top-dose-only effect; inactive = no such curve, though single readings can be large or run the other way. Where the call is inconclusive, the potency comes from a doubtful curve fit.

experiment: qHTS Assay to Identify Small Molecule Activators of BRCA1 Expression; conditions: MCF7-BRCA1-FFLuc reporter, luminescence, 48 h; series mostly up to 46.1 µM; note: nearly all actives have a fitted effect of over 80% in size
How it was run: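 Compounds are tested at multiple concentrations on MCF7 BRCA1-luciferase reporter cells seeded at 2000 per well; after 48 h, a single luminescence end-point is taken and curves fitted to the normalized data.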
Potency is the fitted concentration of half-maximal effect; tags give direction and shape of the fitted curve.

Structure (SMILES) | Potency
COc1ccc(CNc2nc(Cl)c(C#N)s2)cc1 | inconclusive: 8.91 µM [activator, partial curve, poor fit]
Cc1nc2ccc(NC(=O)Cc3c(F)cccc3Cl)cc2s1 | inconclusive: 3.55 µM [activator, partial curve, poor fit]
CC(=O)NC(c1ccc(F)c(F)c1)c1nc(-c2cccc(C(F)(F)F)c2)cs1 (stereo not given) | inactive
N/C(=N\OC(=O)Nc1ccc(Cl)cc1)c1ncc(C(F)(F)F)cc1Cl | inconclusive: 35.5 µM [activator, single point]
N=c1c2c(-c3ccccc3)c(-c3ccccc3)n(Cc3ccccc3)c2ncn1CCCn1ccnc1 | inactive
O=C(O)c1cccc(NC(=S)NC(=O)c2ccc(-c3ccc(Cl)cc3)o2)c1 | active: 11.2 µM
CCCCCOc1ccc(CSc2n[nH]c(C)n2)cc1 | inconclusive: 2.51 µM [activator, full curve, poor fit]
NC(=O)c1cc[n+](CC2=C(C(=O)O)N3C(=O)[C@@H](NC(=O)C(c4ccccc4)S(=O)(=O)[O-])[C@H]3SC2)cc1 (stereo not given in full) | inactive
COc1ccc(CN2C[C@H](Cc3ccccc3)[C@@H](CC(=O)Nc3ccccc3)C2=O)cc1 | inactive
Nc1nc(CSc2ncn(-c3ccccc3)n2)cs1 | inconclusive: 1.58 µM [activator, partial curve, poor fit]
O=C(NCCCSc1ccccc1)c1cccnc1 | inactive
O=C(Nc1nnc(Cc2ccccc2)s1)c1ccco1 | active: 12.6 µM
COc1ccc(-c2nc(-c3ccccc3)c(-c3cc([N+](=O)[O-])ccc3C)[nH]2)cc1OC | inactive
Fc1ccc(-n2nnc(-c3cnc4ccccc4c3)n2)cc1 | inconclusive: 1.26 µM [activator, full curve, poor fit]
O=C(c1ccccc1)N1CCCC(C(=O)N2CCN(c3ccccc3)CC2)C1 (stereo not given) | inactive
COc1ccc(-c2ccc(C(=O)Nc3cccc(F)c3)c3occc23)c(C)c1 | inconclusive: 2 µM [activator, partial curve, poor fit]
O=C(c1cc(-c2ccc(Cl)c(Cl)c2)on1)N1CCOCC1 | active: 1.26 µM
CC(=O)c1cnc(-c2cccc(Cl)c2)s1 | inconclusive: 7.08 µM [activator, partial curve, poor fit]
Cc1cccc2nc(CSc3nc4ccccc4[nH]3)cn12 | inconclusive: 14.1 µM [activator, partial curve, poor fit]
COc1ccccc1C(=O)Nc1nc2cc3c(cc2s1)OCO3 | inconclusive: 2 µM [activator, full curve, poor fit]
